# Results as given in PubChem BioAssay AID588855 (National Center for Advancing Translational Sciences (NCATS), 2011).
# “And” between values parts separate entries of the source, which are not always exact repeats. Identical values can stand only once. In all, about 410,000 compounds went through this assay and about 5,000 (1.2%) were called active. The shares of active, inactive and inconclusive entries below differ from those in the screen. Calls come from the whole dose curve; as a rule, active = well fitted inhibition curve with a large enough effect; inconclusive = small, poorly fitted or top-dose-only effect; inactive = no such curve, though single readings can be large or run the other way. Potencies beside an inconclusive call are fits to weak or partial responses and may not hold up.
# Assay: qHTS for Inhibitors of TGF-b; note: nearly all actives have a fitted effect of over 65% in size
# Conditions: HepG2 CAGA-GFP TGF-b/SMAD3 reporter, GFP fluorescence, 18 h, TGF-beta stimulated, 500 pg/mL final; series mostly up to 46.1 µM
# Method in brief: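 Smad-responsive CAGA-GFP expression was quantified in HEPG2 cells exposed to compounds and 500 pg/mL final TGF-beta for 18 h at 37 degrees C; unstimulated wells defined full inhibition.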
# Potency is the fitted concentration of half-maximal effect; tags give direction and shape of the fitted curve.
row,Compound,Potency
1,OC(COc1ccccc1)CN1CCN(C(c2ccccc2)c2ccccc2)CC1 (stereo not drawn),active: 14.1 µM
2,O=C(Nc1ccc2c(c1)C(=O)OC2)c1ccc(F)cc1F,inactive
3,O=c1c2ccccc2cnn1Cc1n[nH]c(=S)n1-c1cc(Cl)cc(Cl)c1,"inconclusive: 35.5 µM [inhibitor, partial curve, poor fit]"
4,COc1ccc(F)cc1C(=O)C1CCCN(Cc2cn(C)c3ccccc23)C1 (stereo not drawn),"inconclusive: 35.5 µM [inhibitor, single point]"
5,COc1cc(NC(=O)NCc2ccncc2)cc(OC)c1OC,inactive
6,COc1cccc(N2CCN(CC(=O)NC(=O)NC3CCCCC3)CC2)c1,"inconclusive: 20 µM [inhibitor, partial curve, poor fit]"
7,CCCCCC(=O)N1C[C@@H](O)[C@H](n2cc(-c3ccc(F)cc3)nn2)C[C@@H]1c1ccccc1,inactive
8,NC(=O)CSc1oc(-c2ccco2)nc1S(=O)(=O)c1ccc(Cl)cc1,"inconclusive: 3.98 µM [inhibitor, partial curve, poor fit] and inconclusive: 35.5 µM [inhibitor, single point]"
9,COc1ccc(NC(=O)c2ccc(Cl)nc2)cc1S(=O)(=O)N1CCCCC1,"inconclusive: 35.5 µM [inhibitor, single point]"
10,OCCN1CCN(CC/C=C2/c3ccccc3Sc3ccc(C(F)(F)F)cc32)CC1,"inconclusive: 35.5 µM [inhibitor, single point]"
11,NC(=O)c1ccccc1OCC(=O)N1CCC(Cc2ccccc2)CC1,"inconclusive: 11.2 µM [inhibitor, partial curve]"
12,O=C(NC(NNc1ccc([N+](=O)[O-])cc1)(C(F)(F)F)C(F)(F)F)c1ccc(F)cc1,"inconclusive: 17.8 µM [inhibitor, single point]"
13,Cc1ccc(S(=O)(=O)N2C[C@H]3C(=O)C[C@@H](c4cccs4)N(S(=O)(=O)c4ccc(C)cc4)[C@H]3C[C@H]2c2ccccc2)cc1,inactive
14,COCCCNC(=S)NC(=O)c1ccc(C)cc1,inactive
15,CCC[C@@H](CN1CCC[C@H]1CN1C(N)=NC[C@@H]1Cc1ccccc1)N1C[C@@H](Cc2ccccc2)N(CCc2ccc(Cl)c(Cl)c2)C1=N,inactive
16,NC(=O)c1cccc(-c2ccnc3c2CC(C(=O)NCc2ccc(F)c(F)c2)O3)c1 (stereo not drawn),inactive
17,CCCCn1nnnc1NCc1cc(Cl)c(OC)c(OC)c1,"inconclusive: 35.5 µM [inhibitor, single point]"
18,N=C(N)c1ccc(N=Nc2c(O)ccc3c2[nH]c2ccccc23)cc1,"inconclusive: 22.4 µM [inhibitor, single point]"
19,O=C(NCCO)c1cc2ccccc2c(=O)s1,"inconclusive: 35.5 µM [inhibitor, single point]"
20,C=CCn1c(SCc2ccc(C(=O)NCCO)cc2)nc2sc(C)c(C)c2c1=O,inactive
21,Cc1ccc(S(=O)(=O)N2CCCCC2)cc1NC(=O)CNC(C)c1ccc(Cl)c(Cl)c1 (stereo not drawn),"inconclusive: 14.1 µM [inhibitor, partial curve, poor fit]"
22,CCOC(=O)CSC1=C(C#N)C(c2ccc(Cl)cc2)CC(=O)N1 (stereo not drawn),"inconclusive: 0.1 µM [inhibitor, full curve, poor fit]"
23,COc1ccc(NC(=S)NCCc2c[nH]c3ccccc23)c(OC)c1,inactive

row,Compound,Potency
1,CS(=O)(=O)c1ccc2nc(NC(=O)CCC(=O)c3cccs3)sc2c1,"inconclusive: 35.5 µM [inhibitor, single point]"
2,CC1(C)Cc2ccccc2C(N/N=C/c2ccc(Cl)cc2)=N1,"inconclusive: 35.5 µM [inhibitor, single point]"
3,Cc1ccc(S(=O)(=O)N(C)C)cc1NC(=S)N(C)C1CCN(C)CC1,inactive
4,COc1ccc(CCNc2ncnc3nc[nH]c23)cc1,inactive
5,CCCN1C(=O)c2[nH]nc(-c3ccccc3O)c2C1c1ccc(OCc2ccccc2)c(OC)c1 (stereo not drawn),active: 12.6 µM
6,COc1ccc(CN(CCCN2CCOCC2)C(=O)Nc2cccc(Cl)c2)cc1OC,"inconclusive: 0.562 µM [inhibitor, partial curve, poor fit]"
7,Cc1ccc(NC(=O)CN2C(=O)NC(C)(c3ccc(Cl)cc3)C2=O)cc1S(=O)(=O)N1CCOCC1 (stereo not drawn),"inconclusive: 11.2 µM [inhibitor, partial curve]"
8,COC(=O)c1c(NC(=O)CN2CCN(c3ccccc3Cl)CC2)sc(C)c1C,"inconclusive: 5.62 µM [inhibitor, single point]"
9,O=C(Nc1ccc(Cl)cc1)C1Cc2c(-c3ccccc3Oc3ccccc3)ccnc2O1 (stereo not drawn),"inconclusive: 35.5 µM [inhibitor, single point]"
10,CN(C)c1ccc(-c2n(C)c3ccccc3[n+]2C)cc1,inactive
11,CCN(Cc1cccc(S(=O)(=O)O)c1)c1ccc(C(=C2C=CC(=[N+](CC)Cc3cccc(S(=O)(=O)O)c3)C=C2)c2ccc(O)cc2S(=O)(=O)O)cc1,"inconclusive: 5.62 µM [inhibitor, partial curve]"
12,Cc1ccc(NC(=O)CSc2nnc(CNC(=O)C34CC5CC(CC(C5)C3)C4)n2-c2ccc(F)cc2)cc1,"inconclusive: 22.4 µM [inhibitor, single point]"
13,C=C(C)Cn1c(CCCNC(=O)C(C)(C)C)nc2ccccc21,inactive
14,CCc1nnc(NS(=O)(=O)c2ccc(N/C=C\C(=O)c3cccc(OC)c3)cc2)s1,"inconclusive: 6.31 µM [inhibitor, full curve, poor fit]"
15,COc1cccc(CNC(=O)CCc2c(C)nc3c(c(C)nn3-c3ccc(C)c(C)c3)c2C)c1,inactive
16,Cc1nc2c(-c3ccccc3)c(C)nn2c(C)c1CCC(=O)N1CCN(c2ccc(F)cc2)CC1,"inconclusive: 10 µM [inhibitor, partial curve]"
17,C/C(=N\Nc1cc(-c2ccccc2)nc(-c2ccccc2)n1)c1ccc(O)c(C)c1,"inconclusive: 12.6 µM [inhibitor, single point]"
18,O=C(Nc1ccc(S(=O)(=O)N2CCN(Cc3ccccc3)CC2)cc1)c1cnccn1,inactive
19,Cn1cccc1Cc1nnc(SCC(=O)N2CCOCC2)n1CCc1ccccc1,"inconclusive: 5.62 µM [inhibitor, single point]"
20,Cc1c(Cl)cccc1NC(=O)COCc1cc(-c2ccc3c(c2)OCO3)on1,inactive
21,CCC(C)NC(=O)c1ccc2nc(-c3ccco3)c(-c3ccco3)nc2c1 (stereo not drawn),inactive
22,CSc1ccc(CCNC(=O)c2ccc(-c3nc(COc4ccccc4)c(C)o3)cc2)cc1,inactive
23,CCOc1ccccc1N(C)C(=O)C1CCN(S(=O)(=O)c2cccc3nonc23)CC1,"inconclusive: 35.5 µM [inhibitor, single point]"

row,Compound,Potency
1,Cc1cccc(N2CCN(CCCNc3ncnc4onc(-c5ccc(Cl)cc5)c34)CC2C)c1 (stereo not drawn),inactive
2,CCOc1cc(Cl)c(S(=O)(=O)NCCCn2ccnc2)cc1Cl,inactive
3,O=C(CCN1C(=O)C2C3C=CC(C3)C2C1=O)NCCc1ccccc1 (stereo not drawn),inactive
4,Cc1ccc(Cn2ccn(Cc3ccccc3F)c(=O)c2=O)cc1,inactive
5,Cn1ccnc1CN1CCCCC1C(=O)Nc1ccc(Oc2cccnc2)cc1 (stereo not drawn),inactive
6,NC(=O)c1sc2nc3c(c(-c4ccco4)c2c1N)CCCC3,"inconclusive: 35.5 µM [inhibitor, single point]"
7,CC1CCc2nc3ccc(S(=O)(=O)N4CCC(C(=O)NC(C)c5ccccc5)CC4)cc3c(C(=O)O)c2C1 (stereo not drawn),inactive
8,CC(C)C[C@@H](CN1CCC[C@@H]1CN1C(=S)NC[C@@H]1Cc1ccccc1)N1C[C@H](Cc2ccc(O)cc2)N(CCc2ccccc2)C1=S,"inconclusive: 22.4 µM [inhibitor, single point]"
9,CC1(Cc2ccc3c(c2)OCO3)C(=O)Nc2ccc(-c3cccc(C(F)(F)F)c3)cc21 (stereo not drawn),"inconclusive: 35.5 µM [inhibitor, single point]"
10,Cc1c(C(=O)OCCOc2ccccc2)[nH]c2c1C(=O)CC(c1ccccc1)C2 (stereo not drawn),"inconclusive: 1.12 µM [inhibitor, full curve, poor fit]"
11,CCCc1nc2c(nnn2Cc2ccccc2)c(=O)[nH]1,"inconclusive: 25.1 µM [inhibitor, single point]"
12,CCN(CC)CCn1c(C)nc2ccccc21,inactive
13,O=C(c1cc(COc2cccc(C(F)(F)F)c2)on1)N1CCC(Oc2cccnc2)CC1,"inconclusive: 35.5 µM [inhibitor, single point]"
14,Cc1cc(OCCn2cc(C(=O)c3cccs3)c3ccccc32)ccc1Cl,inactive
15,CCn1cc(C(=O)N2CCN(c3ccc([N+](=O)[O-])cc3)CC2)c(=O)c2ccc(C)nc21,inactive
16,Cc1cc(C)c2nc(-c3cccc(Cl)c3)c(C)c(C(=O)N3CCOCC3)c2c1,inactive
17,Cc1ccc(S(=O)(=O)N2[C@@H](c3ccccc3)C(C(=O)O)=CC[C@H]2c2ccc(C(C)C)cc2)cc1,active: 15.8 µM
18,CCOc1ccc(NC(=O)CN(C)C(=O)c2cc(C)on2)cc1OCC,inactive
19,CCCCN1C(=O)C(=O)NC[C@@H]1C(C)CC (stereo partly drawn),"inconclusive: 5.01 µM [inhibitor, partial curve]"
20,C#CC(=O)CC1(CN(Cc2ccccc2)C(=O)OC(C)(C)C)CCCCC1,"inconclusive: 11.2 µM [inhibitor, partial curve, poor fit]"
21,C=CCN=C1S/C(=C/c2cccc([N+](=O)[O-])c2)C(=O)N1CC=C,"inconclusive: 35.5 µM [inhibitor, single point]"
22,C[C@@H](NCCCc1cccc(C(F)(F)F)c1)c1cccc2ccccc12,"inconclusive: 35.5 µM [inhibitor, single point]"
